# Experimental data taken from the supplement of paper PMC8728848.
# Some of the results follow.
# Experiments:
# Test in all cases: glycan array binding signal (z-score within array); higher = stronger binding
# Settings in all cases: glycan notation: IUPAC condensed, linker removed
# [1] = molecular target: Neu5Ac(a2-3)Gal(b1-4)GlcNAc(b1-2)[Neu5Ac(a2-3)Gal(b1-4)GlcNAc(b1-4)]Man(a1-3)[GlcNAc(b1-4)][Neu5Ac(a2-3)Gal(b1-4)GlcNAc(b1-4)Man(a1-6)]Man(b1-4)GlcNAc(b1-4)GlcNAc
# In short: (§1)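 The binding signal is a Z-score computed within each array. Data were drawn from 3228 arrays in the Consortium for Functional Glycomics database, restricted to those with a known protein sequence. Scores were averaged over arrays of the same protein sequence at different concentrations or buffers, and over linkers, and negative values can be taken as non-binding.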
# [2] = molecular target: Neu5Ac(a2-3)Gal(b1-4)GlcNAc(b1-2)[Neu5Ac(a2-3)Gal(b1-4)GlcNAc(b1-6)]Man(a1-6)[Neu5Ac(a2-3)Gal(b1-4)GlcNAc(b1-2)Man(a1-3)]Man(b1-4)GlcNAc(b1-4)GlcNAc
# In short: as §1
# [3] = molecular target: Neu5Ac(a2-3)Gal(b1-4)GlcNAc(b1-2)[Neu5Ac(a2-3)Gal(b1-4)GlcNAc(b1-6)]Man(a1-6)[Neu5Ac(a2-3)Gal(b1-4)GlcNAc(b1-2)Man(a1-3)][GlcNAc(b1-4)]Man(b1-4)GlcNAc(b1-4)GlcNAc
# In short: as §1
# [4] = molecular target: Neu5Ac(a2-3)Gal(b1-4)GlcNAc(b1-3)Gal
# In short: as §1
# [5] = molecular target: Neu5Ac(a2-3)Gal(b1-4)GlcNAc(b1-3)Gal(b1-3)GlcNAc
# In short: as §1
# [6] = molecular target: Neu5Ac(a2-3)Gal(b1-4)GlcNAc(b1-3)Gal(b1-4)GlcNAc
# In short: as §1
# [7] = molecular target: Neu5Ac(a2-3)Gal(b1-4)GlcNAc(b1-3)Gal(b1-4)GlcNAc(b1-2)Man(a1-3)[Neu5Ac(a2-3)Gal(b1-4)GlcNAc(b1-3)Gal(b1-4)GlcNAc(b1-2)Man(a1-6)]Man(b1-4)GlcNAc(b1-4)GlcNAc
# In short: as §1
# [8] = molecular target: Neu5Ac(a2-3)Gal(b1-4)GlcNAc(b1-3)Gal(b1-4)GlcNAc(b1-3)Gal(b1-4)GlcNAc
# In short: as §1
# [9] = molecular target: Neu5Ac(a2-3)Gal(b1-4)GlcNAc(b1-3)Gal(b1-4)GlcNAc(b1-3)Gal(b1-4)GlcNAc(b1-2)Man(a1-3)[Neu5Ac(a2-3)Gal(b1-4)GlcNAc(b1-3)Gal(b1-4)GlcNAc(b1-3)Gal(b1-4)GlcNAc(b1-2)Man(a1-6)]GalNAc
# In short: as §1
# [10] = molecular target: Neu5Ac(a2-3)Gal(b1-4)GlcNAc(b1-3)Gal(b1-4)GlcNAc(b1-3)GalNAc
# In short: as §1
# [11] = molecular target: Neu5Ac(a2-3)Gal(b1-4)GlcNAc(b1-3)Gal(b1-4)GlcNAc(b1-3)[Neu5Ac(a2-3)Gal(b1-4)GlcNAc(b1-3)Gal(b1-4)GlcNAc(b1-6)]GalNAc
# In short: as §1
# [12] = molecular target: Neu5Ac(a2-3)Gal(b1-4)GlcNAc(b1-3)Gal(b1-4)GlcNAc(b1-6)[Gal(b1-3)]GalNAc
# In short: as §1
# [13] = molecular target: Neu5Ac(a2-3)Gal(b1-4)GlcNAc(b1-3)Gal(b1-4)[Fuc(a1-3)]GlcNAc
# In short: as §1
# [14] = molecular target: Neu5Ac(a2-3)Gal(b1-4)GlcNAc(b1-3)GalNAc
# In short: as §1
# [15] = molecular target: Neu5Ac(a2-3)Gal(b1-4)GlcNAc(b1-3)[Neu5Ac(a2-3)Gal(b1-4)GlcNAc(b1-6)]GalNAc
# In short: as §1
# [16] = molecular target: Neu5Ac(a2-3)Gal(b1-4)GlcNAc(b1-6)GalNAc
# In short: as §1
# [17] = molecular target: Neu5Ac(a2-3)Gal(b1-4)GlcNAc(b1-6)[Gal(b1-3)]GalNAc
# In short: as §1
# [18] = molecular target: Neu5Ac(a2-3)Gal(b1-4)GlcNAc(b1-6)[Neu5Ac(a2-3)Gal(b1-3)]GalNAc
# In short: as §1
# [19] = molecular target: Neu5Ac(a2-3)Gal(b1-4)GlcNAc6S
# In short: as §1
# [20] = molecular target: Neu5Ac(a2-3)Gal(b1-4)[Fuc(a1-3)]GlcNAc
# In short: as §1
# [21] = molecular target: Neu5Ac(a2-3)Gal(b1-4)[Fuc(a1-3)]GlcNAc(b1-2)Man
# In short: as §1
# [22] = molecular target: Neu5Ac(a2-3)Gal(b1-4)[Fuc(a1-3)]GlcNAc(b1-3)Gal
# In short: as §1
# [23] = molecular target: Neu5Ac(a2-3)Gal(b1-4)[Fuc(a1-3)]GlcNAc(b1-3)Gal(b1-4)GlcNAc
# In short: as §1
# [24] = molecular target: Neu5Ac(a2-3)Gal(b1-4)[Fuc(a1-3)]GlcNAc(b1-3)Gal(b1-4)[Fuc(a1-3)]GlcNAc(b1-3)Gal(b1-4)[Fuc(a1-3)]GlcNAc
# In short: as §1
# [25] = molecular target: Neu5Ac(a2-3)Gal(b1-4)[Fuc(a1-3)]GlcNAc(b1-3)GalNAc
# In short: as §1
# [26] = molecular target: Neu5Ac(a2-3)Gal(b1-4)[Fuc(a1-3)]GlcNAc(b1-6)[Gal(b1-3)]GalNAc
# In short: as §1
# [27] = molecular target: Neu5Ac(a2-3)Gal(b1-4)[Fuc(a1-3)]GlcNAc(b1-6)[Neu5Ac(a2-3)Gal(b1-3)]GalNAc
# In short: as §1
# [28] = molecular target: Neu5Ac(a2-3)Gal(b1-4)[Fuc(a1-3)]GlcNAc6S
# In short: as §1
# [29] = molecular target: Neu5Ac(a2-3)Gal6S(b1-4)GlcNAc
# In short: as §1
# [30] = molecular target: Neu5Ac(a2-3)Gal6S(b1-4)[Fuc(a1-3)]GlcNAc
# In short: as §1
# [31] = molecular target: Neu5Ac(a2-3)GalNAc
# In short: as §1
# [32] = molecular target: Neu5Ac(a2-3)GalNAc(b1-4)GlcNAc
# In short: as §1
# [33] = molecular target: Neu5Ac(a2-3)[GalNAc(b1-4)]Gal(b1-4)Glc
# In short: as §1
# [34] = molecular target: Neu5Ac(a2-3)[GalNAc(b1-4)]Gal(b1-4)GlcNAc
# In short: as §1
# [35] = molecular target: Neu5Ac(a2-3)[GalNAc(b1-4)]Gal(b1-4)GlcNAc(b1-3)GalNAc
# In short: as §1
# [36] = molecular target: Neu5Ac(a2-3)[Neu5Ac(a2-6)]GalNAc
# In short: as §1
# [37] = molecular target: Neu5Ac(a2-6)Gal
# In short: as §1
binder,measurement,setting,value
"FliC (Pseudomonas aeruginosa), P72151 (protein) MALTVNTNIASLNTQRNLNASSNDLNTSLQRLTTGYRINSAKDDAAGLQISNRLSNQISGLNVATRNANDGISLAQTAEGALQQSTNILQRIRDLALQSANGSNSDADRAALQKEVAAQQAELTRISDTTTFGGRKLLDGSFGTTSFQVGSNAYETIDISLQNASASAIGSYQVGSNGAGTVASVAGTATASGIASGTVNLVGGGQVKNIAIAAGDSAKAIAEKMDGAIPNLSARARTVFTADVSGVTGGSLNFDVTVGSNTVSLAGVTSTQDLADQLNSNSSKLGITASINDKGVLTITSATGENVKFGAQTGTATAGQVAVKVQGSDGKFEAAAKNVVAAGTAATTTIVTGYVQLNSPTAYSVSGTGTQASQVFGNASAAQKSSVASVDISTADGAQNAIAVVDNALAAIDAQRADLGAVQNRFKNTIDNLTNISENATNARSRIKDTDFAAETAALSKNQVLQQAGTAILAQANQLPQAVLSLLR",glycan array binding signal (z-score),[1],0.831
same,glycan array binding signal (z-score),[2],-0.196
same,glycan array binding signal (z-score),[3],-0.193
same,glycan array binding signal (z-score),[4],-0.191
same,glycan array binding signal (z-score),[5],-0.185
same,glycan array binding signal (z-score),[6],-0.134
same,glycan array binding signal (z-score),[7],-0.073
same,glycan array binding signal (z-score),[8],0.251
same,glycan array binding signal (z-score),[9],0.039
same,glycan array binding signal (z-score),[10],-0.217
same,glycan array binding signal (z-score),[11],-0.117
same,glycan array binding signal (z-score),[12],-0.104
same,glycan array binding signal (z-score),[13],-0.109
same,glycan array binding signal (z-score),[14],-0.213
same,glycan array binding signal (z-score),[15],-0.171
same,glycan array binding signal (z-score),[16],-0.163
same,glycan array binding signal (z-score),[17],-0.17
same,glycan array binding signal (z-score),[18],0.476
same,glycan array binding signal (z-score),[19],-0.132
same,glycan array binding signal (z-score),[20],0.173
same,glycan array binding signal (z-score),[21],-0.25
same,glycan array binding signal (z-score),[22],0.271
same,glycan array binding signal (z-score),[23],-0.166
same,glycan array binding signal (z-score),[24],3.22
same,glycan array binding signal (z-score),[25],-0.081
same,glycan array binding signal (z-score),[26],-0.124
same,glycan array binding signal (z-score),[27],-0.095
same,glycan array binding signal (z-score),[28],-0.203
same,glycan array binding signal (z-score),[29],-0.218
same,glycan array binding signal (z-score),[30],-0.129
same,glycan array binding signal (z-score),[31],-0.254
same,glycan array binding signal (z-score),[32],-0.187
same,glycan array binding signal (z-score),[33],-0.175
same,glycan array binding signal (z-score),[34],-0.214
same,glycan array binding signal (z-score),[35],-0.182
same,glycan array binding signal (z-score),[36],-0.036
same,glycan array binding signal (z-score),[37],-0.149
